From the supplement of paper PMC7726561
Whole data set: some 1,100 sequences, median “thermal melting temperature (Tm) of peptide-HLA complex” near 58, cut for the lowest 2% near 42. Some of the results follow.

The sequences below were run against HLA-A*02:01 (assay: thermal melting temperature (Tm) of peptide-HLA complex; higher = more thermostable pHLA complex). Settings: C1R-A*02:01.
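Note: cell lysates heated 10 min at 37–73 °C, remaining pHLA pulled down with pan-class I antibody, peptides quantified by DIA-MS versus 37 °C, Tm where half the complex is lost.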

Row | Sequence | thermal melting temperature
1 | FQTEVGKQL | 47.6 °C
2 | YLSSLQPRL | 61.4 °C
3 | LLIDDEYKV | 54.9 °C
4 | WLDETLAQV | 59.3 °C
5 | SLFPGQVVI | 52.3 °C
6 | YLMEVTHDL | 65.2 °C
7 | KLLEESIANL | 48.1 °C
8 | KVIDYVPGI | 58.8 °C
9 | VLLEPFIHQV | 55.9 °C
10 | TLYEAVREV | 61.6 °C
11 | TLNDREYQL | 58.4 °C
12 | GLDPNKPPEL | 61 °C
13 | TLLGHEFVL | 60.4 °C
14 | SLLPEGPPAI | 57.8 °C
15 | KLLETELLQEI | 60.2 °C
16 | SLFPGKLEV | 60.4 °C
17 | GLWRGEEVTL | 50.7 °C
18 | QLVEQVEQI | 43.7 °C
19 | LLSAEPVPA | 59.3 °C

Row | Sequence | thermal melting temperature
20 | TLLTFFHEL | 57.4 °C
21 | IIIPEIQKV | 51 °C
22 | TLHSIIISL | 56.7 °C
23 | SLFAGGMLRV | 57.2 °C
24 | KLSAEKVEI | 54.9 °C
25 | ALLDKLYAL | 64.9 °C
26 | RLQEDPPAGV | 60.9 °C
27 | ILLDSGLEKA | 46.7 °C
28 | KLDDLTQDLTV | 60.6 °C
29 | KLSEIPLTL | 58.5 °C
30 | LLLDQLTKA | 57.6 °C
31 | RLDEAFDFV | 57 °C
32 | LLTDYILKV | 58.8 °C
33 | ILEENIPVL | 51.6 °C
34 | RLPDDDPTAV | 55.4 °C
35 | IQVTKVTQV | 53.7 °C
36 | NMVDIIHSV | 57.2 °C
37 | LLYQGPHNTL | 59.8 °C
38 | LQLDKEFQL | 58.8 °C

Row | Sequence | thermal melting temperature
39 | TLFPVRLLV | 55.8 °C
40 | ILANDGVLLAA | 59.6 °C
41 | KLLDPSTPVHI | 49.7 °C
42 | NVIERLQEA | 57.2 °C
43 | YPSEFATYL | 56.5 °C
44 | KVFSAFITV | 56.9 °C
45 | YLPEDFIRV | 61.4 °C
46 | GVIDGHIYAV | 61.7 °C
47 | GLIEDHFDVTV | 61.6 °C
48 | KLGEILANL | 57.1 °C
49 | ALFPGDVDRL | 54.3 °C
50 | KLLDLSDSTSV | 58.9 °C
51 | TIAEVGKWLQA | 57.3 °C
52 | YLDIKGLLDV | 56 °C
53 | TLVDFPLHL | 58.2 °C
54 | VVDAVVTQV | 54.5 °C
55 | RLAAFYSQV | 54.9 °C
56 | FLLDGFPRTV | 62.8 °C
